The values below are quoted from earlier work in patent CN116283752A (priority 2023, dated 2023).

In the data set the test system is Mycobacterium tuberculosis [结核菌]. The following applies: cited from earlier work.

With `COc1ccn2nc(C)c(C(=O)NCc3ccc(N4CCC(c5ccc(OC(F)(F)F)cc5)CC4)cc3)c2c1` [TB47, 5-甲氧基-2-甲基-N-(4-(4-(4-(三氟甲氧基)苯基)哌啶-I-取代)苄基)吡唑[1,5-a]吡啶-3-甲酰胺], the “in vivo and in vitro antitubercular activity (in words)” value is “已被证实存在体内外抗结核菌的活性”; the “synergistic antibacterial effect with known antitubercular drugs (in words)” value is recorded as “存在协同抗菌作用”.
